Assay results published in patent US20240247069A1, “FGFR3 BINDING MOLECULES AND METHODS OF USE THEREOF” (Regeneron Pharmaceuticals, Inc., priority 2023, published 2024).

What was measured:
FGFR3 [1] = test: Agonist activity of parental anti-FGFR3 antibodies (Table 1); format: cell-based; details: for EC50: read-out: Agonist Activity (first value of the cell), cell prints value/%, unit inferred
FGFR3 [2] = test: Ligand blocking activity of parental anti-FGFR3 antibodies (Table 1); format: binding; details: for IC50: cell prints value/%, unit inferred, NB not defined for this column, read-out: Ligand Blocking Activity (first value of the cell)
hFGFR3b (mmh) = test: Biacore binding to human FGFR3b; details: unit inferred; NB = no binding observed
Protocol: (§1) Affinity and mechanism of action of binding of anti-FGFR3 antibodies to FGFR3 isoforms were determined by Biacore analysis. In brief, in-house generated monoclonal anti-human Fc antibody was immobilized on the surface of a CM-5 sensor chip. Different concentrations of FGFR3 antibodies were injected at 50 μL/min for 4 min and the assay was performed at 25° C. The mAb binding response was monitored and, for low affinity receptors, steady-state binding equilibrium was calculated. Kinetic association (ka) and dissociation (kd) rate constants were determined by processing and fitting the data to a 1:1 binding model using Scrubber 2.0 curve fitting software. Binding dissociation equilibrium constants (KD) and dissociative half-lives (t1/2) were calculated from the kinetic rate constants using the formula: KD (M)=kd/ka; and t1/2 (min)=(ln2/(60*kd). Some KD values were derived using the steady state equilibrium dissociation constant; When no KD values could be derived, it was marked as NB (no binding observed) or IC (inconclusive affinity determination due to low specific RU signal).

hFGFR3c (mmh) = molecular target: T1, hFGFR3c (mmh) (Homo sapiens, UniProt P22607); test: Biacore binding to human FGFR3c; details: unit inferred; NB = no binding observed
T1 construct: biotinylated human or mouse FGFR3b-ecto.mmH, human FGFR3c-ecto.mmH; mmh (own knowledge: myc-myc-hexahistidine) (C)
T1 sequence (P22607 23-375 limits assumed): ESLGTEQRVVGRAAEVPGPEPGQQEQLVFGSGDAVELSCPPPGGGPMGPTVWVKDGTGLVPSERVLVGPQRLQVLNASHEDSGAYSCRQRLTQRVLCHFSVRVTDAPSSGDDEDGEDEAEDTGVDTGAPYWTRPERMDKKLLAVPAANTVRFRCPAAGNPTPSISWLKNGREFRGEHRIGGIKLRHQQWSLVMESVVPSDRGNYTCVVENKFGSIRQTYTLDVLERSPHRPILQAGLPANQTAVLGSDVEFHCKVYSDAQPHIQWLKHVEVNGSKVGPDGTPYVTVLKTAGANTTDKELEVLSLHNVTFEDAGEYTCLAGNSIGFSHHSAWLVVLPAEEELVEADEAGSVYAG
Protocol: as §1

mfFGFR3b (mmh) = test: Biacore binding to monkey FGFR3b; details: unit inferred
Protocol: as §1

moFGFR3b (mmh) = molecular target: T2, moFGFR3b (mmh) (Mus musculus, UniProt Q61851); test: Biacore binding to mouse FGFR3b; details: unit inferred; NB = no binding observed
T2 construct: biotinylated human or mouse FGFR3b-ecto.mmH, human FGFR3c-ecto.mmH; mmh (own knowledge: myc-myc-hexahistidine) (C)
T2 sequence (Q61851 21-371 isoform Q61851-2): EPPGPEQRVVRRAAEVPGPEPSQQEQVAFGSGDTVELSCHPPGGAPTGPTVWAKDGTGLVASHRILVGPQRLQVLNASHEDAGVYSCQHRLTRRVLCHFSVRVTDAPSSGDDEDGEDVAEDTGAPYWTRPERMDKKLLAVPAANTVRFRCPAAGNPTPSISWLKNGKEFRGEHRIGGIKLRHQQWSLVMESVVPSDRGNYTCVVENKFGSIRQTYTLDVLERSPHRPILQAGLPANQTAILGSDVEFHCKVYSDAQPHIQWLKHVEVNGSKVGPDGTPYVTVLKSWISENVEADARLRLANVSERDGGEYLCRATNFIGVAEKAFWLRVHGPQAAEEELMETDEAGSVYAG
Protocol: as §1

B1: mAb045: parental anti-FGFR3 antibody; additional scFv arm of AF antibodies (antibody)
heavy: QVQLVQSGAEVKKPGASVKVSCKTSGYRFVNYGFSWVRQAPGQGLEWMGWISPYNGNTNYIQNLQDRITMTTDTSTNTAYMELTNLRSDDTAVYYCATLTGVHFDYWGQGTLVTVSSASTKGPSVFPLAPCSRSTSESTAALGCLVKDYFPEPVTVSWNSGALTSGVHTFPAVLQSSGLYSLSSVVTVPSSSLGTKTYTCNVDHKPSNTKVDKRV[human IgG4 Fc with S228P (EU numbers) cut from this listing]
light: AIQMTQSPSSLSASVGDRVTITCRASQGIRNDLGWYQQKPGKAPNLLIFETSRLQSGVPSRFSGSGSGTDFTLTINSLQPEDFATYYCLQDYNYPWTFGQGTKVEIKRTVAAPSVFIFPPSDEQLKSGTASVVCLLNNFYPREAKVQWKVDNALQSGNSQESVTEQDSKDSTYSLSSTLTLSKADYEKHKVYACEVTHQGLSSPVTKSFNRGEC
- Agonist Activity (percent value of the cell) (FGFR3 [1]): 31.3%
- EC50 (FGFR3 [1]): 0.11 nM
- Ligand Blocking Activity (percent value of the cell) (FGFR3 [2]): 3%
- Kd (hFGFR3b (mmh)): 20.2 nM
- Kd (hFGFR3c (mmh)): 20.4 nM
- Kd (mfFGFR3b (mmh)): 13.9 nM

B2: mAb061: parental anti-FGFR3 antibody; additional scFv arm of AF antibodies (antibody)
heavy: EVQLVESGGGLAQPGGSLKLSCEASGFTFSDSAMHWVRQASGKGLEWVGRIRSKANSYATGYAASVKGRFTISRDDSKNMAFLEMNSLKTEDTAVYYCLRQTYGDPWGQGTLVTVSSASTKGPSVFPLAPCSRSTSESTAALGCLVKDYFPEPVTVSWNSGALTSGVHTFPAVLQSSGLYSLSSVVTVPSSSLGTKTYTCNVDHKPSNTKVDKRV[human IgG4 Fc with S228P (EU numbers) cut from this listing]
light: DVVMTQSPLSLSVTLGQPASISCRSSLSLVYSDGNNYLNWFQQRPGQSPRRLLYKVFNRDSGVPDRFSGSGSGTDFTLKISRVEAEDVGVYYCMQGTHWPWTFGQGTKVEIKRTVAAPSVFIFPPSDEQLKSGTASVVCLLNNFYPREAKVQWKVDNALQSGNSQESVTEQDSKDSTYSLSSTLTLSKADYEKHKVYACEVTHQGLSSPVTKSFNRGEC
- Agonist Activity (percent value of the cell) (FGFR3 [1]): 55.3%
- EC50 (FGFR3 [1]): 0.18 nM
- Ligand Blocking Activity (percent value of the cell) (FGFR3 [2]): 84%
- IC50 (FGFR3 [2]): 3.9 nM
- Kd (hFGFR3b (mmh)): 2.5 nM
- Kd (hFGFR3c (mmh)): 3.93 nM
- Kd (mfFGFR3b (mmh)): 3.42 nM

B3: mAb071: parental anti-FGFR3 antibody; additional scFv arm of AF antibodies (antibody)
heavy: QVQLQQSGPGLVKPSQTLSLTCAISGDSVSRNSAAWNWIRQSPSSGLEWLGRTYYRSKWFYDYAISVKSRITVNPDTSKNQFSLHLNSVTPEDTAVYYCARGYGGYEDYFDYWGQGTLVTVSSASTKGPSVFPLAPCSRSTSESTAALGCLVKDYFPEPVTVSWNSGALTSGVHTFPAVLQSSGLYSLSSVVTVPSSSLGTKTYTCNVDHKPSNTKVDKRV[human IgG4 Fc with S228P (EU numbers) cut from this listing]
light: DIQMTQSPSSVSASVGDRVTITCRASQGISSWLAWYQQKPGKAPKLLIYGASSLQSGVPSRFSGSGSGTDFTLTISSLQPEDFATYFCQQGSSFPYTFGQGTKLEIKRTVAAPSVFIFPPSDEQLKSGTASVVCLLNNFYPREAKVQWKVDNALQSGNSQESVTEQDSKDSTYSLSSTLTLSKADYEKHKVYACEVTHQGLSSPVTKSFNRGEC
- Agonist Activity (percent value of the cell) (FGFR3 [1]): 17.2%
- Ligand Blocking Activity (percent value of the cell) (FGFR3 [2]): 88%
- IC50 (FGFR3 [2]): 3.6 nM
- Kd (hFGFR3b (mmh)): 0.703 nM
- Kd (mfFGFR3b (mmh)): 0.827 nM
- Kd (moFGFR3b (mmh)): 15.5 nM

B4: mAb076: parental anti-FGFR3 antibody; anchor or additional arm of AF antibodies (antibody)
heavy: EVQLVESGGGLVQPGGSLRLSCAASGFTVSSNYMSWVRQAPGKGLEWVSIIYSGGHTYYSDSVKGRFTISRHNSKNTLYLQMNSLRGGDTAVYYCARGYTSGWYGFDFWGQGTLVTVSSASTKGPSVFPLAPCSRSTSESTAALGCLVKDYFPEPVTVSWNSGALTSGVHTFPAVLQSSGLYSLSSVVTVPSSSLGTKTYTCNVDHKPSNTKVDKRV[human IgG4 Fc with S228P (EU numbers) cut from this listing]
light: DIQMTQSPSSVSASVGDRVTITCRASQGISTWLAWYQQKPGKAPKLLIYAASSLQSGVPSRFSGTGSGTDFTLTISSLQPEDFATYYCQQTNSFPWTFGQGTKVEIKRTVAAPSVFIFPPSDEQLKSGTASVVCLLNNFYPREAKVQWKVDNALQSGNSQESVTEQDSKDSTYSLSSTLTLSKADYEKHKVYACEVTHQGLSSPVTKSFNRGEC
- Agonist Activity (percent value of the cell) (FGFR3 [1]): 15.2%
- Ligand Blocking Activity (percent value of the cell) (FGFR3 [2]): −1%
- Kd (hFGFR3b (mmh)): 1.09 nM
- Kd (mfFGFR3b (mmh)): 1.2 nM
- Kd (moFGFR3b (mmh)): 0.818 nM
